# Source: the BET-seq Pho4 binding data (Le et al. 2018)
# The list shows a part of the results. These are noisy estimates, calculated here from bound and input reads.
# Target: T1, Pho4 (S. cerevisiae) (UniProt P07270)
# T1 sequence: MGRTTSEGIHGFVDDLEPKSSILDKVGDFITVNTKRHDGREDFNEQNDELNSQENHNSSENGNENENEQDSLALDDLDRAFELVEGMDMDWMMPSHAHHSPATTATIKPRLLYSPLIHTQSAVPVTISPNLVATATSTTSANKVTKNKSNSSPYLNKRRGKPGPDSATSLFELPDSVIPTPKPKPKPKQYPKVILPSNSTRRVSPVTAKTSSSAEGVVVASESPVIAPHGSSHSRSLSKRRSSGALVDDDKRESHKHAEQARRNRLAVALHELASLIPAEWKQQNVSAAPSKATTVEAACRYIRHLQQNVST
# Test: relative binding free energy (BET-seq); higher = weaker binding
# Conditions: reference: library average
row,Sequence,relative binding free energy
1,TGGGACACGTGATTGC,0.1 kcal/mol
2,TTGTCCACGTGATAGT,0.05 kcal/mol
3,TGGTCCACGTGCGTTA,-0.12 kcal/mol
4,TATTGCACGTGAATCG,0.23 kcal/mol
5,TGGTGCACGTGGGATG,-0.1 kcal/mol
6,TCTGACACGTGGTTGT,-0.05 kcal/mol
7,AGGCTCACGTGGGGTT,0.11 kcal/mol
8,AGAGACACGTGATGGG,0.09 kcal/mol
9,GTAGTCACGTGCGTAG,0.17 kcal/mol
10,GGGGACACGTGAAATT,0.62 kcal/mol
11,CGTACCACGTGTGGGT,-0.07 kcal/mol
12,GGATGCACGTGGGGGC,-0.06 kcal/mol
13,GGGTGCACGTGTAATT,0.16 kcal/mol
14,GTGCGCACGTGTGAAT,0.11 kcal/mol
15,TAATCCACGTGTTGTT,0 kcal/mol
16,GGTTTCACGTGCGTGC,0.26 kcal/mol
17,TTAGTCACGTGAGAAT,0.26 kcal/mol
18,AAGTCCACGTGAGGGT,0.12 kcal/mol
19,CGGGACACGTGATTTT,0.4 kcal/mol
20,CAATTCACGTGGTGAT,0.24 kcal/mol
21,ATTAGCACGTGTGAGA,-0.01 kcal/mol
22,AATACCACGTGGGTGT,-0.28 kcal/mol
23,GGTGCCACGTGTGGGT,0 kcal/mol

row,Sequence,relative binding free energy
1,GTGTACACGTGGTGAG,0.01 kcal/mol
2,TGGCTCACGTGGTCTT,0.12 kcal/mol
3,GAGTACACGTGGTATG,0.14 kcal/mol
4,GGTTTCACGTGCGACG,0.35 kcal/mol
5,AGAGTCACGTGCTTAT,0.14 kcal/mol
6,GGTGGCACGTGACGTC,0.07 kcal/mol
7,GTGATCACGTGAGGCG,0.23 kcal/mol
8,ATGTTCACGTGTAGTC,0.16 kcal/mol
9,TAATGCACGTGTGTCG,-0.07 kcal/mol
10,ATAGTCACGTGGGTCA,-0.06 kcal/mol
11,TTTGGCACGTGCTCTG,-0.1 kcal/mol
12,CTTCGCACGTGTAGGG,0.1 kcal/mol
13,ACGTTCACGTGTTGTT,0.25 kcal/mol
14,GGTTCCACGTGGATAG,0.18 kcal/mol
15,CCGGGCACGTGGCGGT,-0.29 kcal/mol
16,AAGGTCACGTGTTAGT,0.26 kcal/mol
17,GGTTTCACGTGGTATT,0.38 kcal/mol
18,GCGGACACGTGGGTGT,-0.03 kcal/mol
19,TGGAGCACGTGCTGTT,-0.14 kcal/mol
20,GGGAGCACGTGCGGTG,-0.11 kcal/mol
21,ATGTCCACGTGTTTGT,0.07 kcal/mol
22,GGGTTCACGTGTTTAC,0.28 kcal/mol
23,CTTCTCACGTGGGTTT,0.1 kcal/mol

row,Sequence,relative binding free energy
1,CTTGGCACGTGCGGGG,-0.28 kcal/mol
2,AGGAGCACGTGAGCGT,0.14 kcal/mol
3,TTACTCACGTGGGGGA,-0.01 kcal/mol
4,TCCGGCACGTGGGTTA,-0.1 kcal/mol
5,AGTATCACGTGGCGGG,0.14 kcal/mol
6,GTAGGCACGTGATTCA,-0.01 kcal/mol
7,AGAGGCACGTGTTTAA,-0.15 kcal/mol
8,TGTAGCACGTGAGTCA,0.2 kcal/mol
9,TGCGACACGTGGTAGT,-0.06 kcal/mol
10,CTAGGCACGTGGTCTG,-0.19 kcal/mol
11,TATTACACGTGTGCAT,0.02 kcal/mol
12,CTTGACACGTGGTAAT,0 kcal/mol
13,TTGGGCACGTGGTCGC,-0.1 kcal/mol
14,TATTTCACGTGTTCTG,0.2 kcal/mol
15,GTTAGCACGTGGGGGT,0.01 kcal/mol
16,CTGTGCACGTGAGAGT,0.15 kcal/mol
17,TAGTGCACGTGTACTG,-0.01 kcal/mol
18,ATGGCCACGTGGTGAT,-0.01 kcal/mol
19,GATTTCACGTGTGTTG,0.36 kcal/mol
20,CTAGGCACGTGTGCGG,-0.31 kcal/mol
21,GAGCTCACGTGGTAGT,0.22 kcal/mol
22,TAATGCACGTGAGGGC,0.22 kcal/mol
23,TGTGGCACGTGGTCGC,-0.24 kcal/mol

row,Sequence,relative binding free energy
1,TCTATCACGTGTTATG,0.08 kcal/mol
2,TTGGTCACGTGGTAGT,0.18 kcal/mol
3,CGGTGCACGTGTAATG,0.03 kcal/mol
4,CGCTGCACGTGTTGTT,0 kcal/mol
5,GGATTCACGTGAGGTA,0.47 kcal/mol
6,CTGTTCACGTGGGGGC,0.17 kcal/mol
7,GGGTACACGTGATAGA,0.32 kcal/mol
8,TCTGTCACGTGGAGCA,0.3 kcal/mol
9,GTATACACGTGGGATA,-0.12 kcal/mol
10,ATGGTCACGTGCGAGG,0 kcal/mol
11,AGTATCACGTGATTGG,0.24 kcal/mol
12,TCGGTCACGTGGGCTT,0.03 kcal/mol
13,ATGTGCACGTGGTGCA,-0.23 kcal/mol
14,GTTGCCACGTGACTTG,0.23 kcal/mol
15,CTTCACACGTGGGGTG,-0.11 kcal/mol
16,GCAAGCACGTGGAGTT,0.1 kcal/mol
17,TGTATCACGTGAGCAA,0.35 kcal/mol
18,ATTTTCACGTGTTAAC,0.23 kcal/mol
19,CGTCACACGTGGAGGG,0.13 kcal/mol
20,TCAAACACGTGTTGTG,-0.01 kcal/mol
21,ATTGACACGTGTGAGT,0.05 kcal/mol
22,CGGTGCACGTGTTGTG,-0.04 kcal/mol
23,TAGCCCACGTGGGGGT,-0.3 kcal/mol

row,Sequence,relative binding free energy
1,TTATGCACGTGTGTCG,-0.07 kcal/mol
2,TCCGTCACGTGTGTGT,0.14 kcal/mol
3,TTATTCACGTGAGGAT,0.41 kcal/mol
4,TAGGCCACGTGGTGGC,-0.05 kcal/mol
5,TGAGTCACGTGATGTC,0.12 kcal/mol
6,GAAAGCACGTGTTGAT,0.06 kcal/mol
7,TTTGCCACGTGGTTAA,-0.22 kcal/mol
8,TATTGCACGTGCGGAT,-0.01 kcal/mol
9,GTAAACACGTGTGTGG,-0.09 kcal/mol
10,GGTGGCACGTGGTGGA,-0.05 kcal/mol
11,TTTTACACGTGTGTAG,0.03 kcal/mol
12,GACTGCACGTGATTGT,0.25 kcal/mol
13,TTTGTCACGTGAGAGA,0.28 kcal/mol
14,TTAAACACGTGGAGTG,-0.01 kcal/mol
15,ATTCTCACGTGTAATG,0.16 kcal/mol
16,CAGGGCACGTGTAGGT,-0.12 kcal/mol
17,GAGGGCACGTGGGCCG,-0.12 kcal/mol
18,TAGTGCACGTGGGCGG,-0.2 kcal/mol
19,AGTTACACGTGGAATG,0.34 kcal/mol
20,AGGATCACGTGGGCTT,-0.01 kcal/mol
21,GGGTGCACGTGTAGGC,0.13 kcal/mol
22,AGATACACGTGTTGGT,-0.06 kcal/mol
23,GTGGTCACGTGTGTCG,0.15 kcal/mol
